Results: PubChem BioAssay AID360 (National Center for Advancing Translational Sciences (NCATS), 2006)
Out of some 48,000 compounds screened, about 550 (1.1%) were called active. Roughly 4% stayed inconclusive and do not appear here. Rule as the data show it: active = potency below about 15 µM; inconclusive = mostly about 16 µM to 33 µM; inactive = weaker than that. Some of the results follow.

Target: Lysosomal acid glucosylceramidase (Homo sapiens) (UniProt P04062)
Test: Glucocerebrosidase;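 also: the screen sought inhibitors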
Conditions: purified enzyme, resorufin glucoside fluorescence (screen aimed at inhibitors), 20 min
Outline: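 Wild-type enzyme at 0.2 nM final in 50mM citric acid/KH2PO4, 10mM sodium taurocholate, 0.01% tween-20, pH 5.9, with resorufin beta-D-glucopyranoside at 30 uM final. Compounds titrated, 20 min at RT, red fluorescence read; AC50 from titration.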
Potency is read from the fitted curve at half-maximal effect.

Chain of UniProt P04062 (P04062 whole entry, looked up): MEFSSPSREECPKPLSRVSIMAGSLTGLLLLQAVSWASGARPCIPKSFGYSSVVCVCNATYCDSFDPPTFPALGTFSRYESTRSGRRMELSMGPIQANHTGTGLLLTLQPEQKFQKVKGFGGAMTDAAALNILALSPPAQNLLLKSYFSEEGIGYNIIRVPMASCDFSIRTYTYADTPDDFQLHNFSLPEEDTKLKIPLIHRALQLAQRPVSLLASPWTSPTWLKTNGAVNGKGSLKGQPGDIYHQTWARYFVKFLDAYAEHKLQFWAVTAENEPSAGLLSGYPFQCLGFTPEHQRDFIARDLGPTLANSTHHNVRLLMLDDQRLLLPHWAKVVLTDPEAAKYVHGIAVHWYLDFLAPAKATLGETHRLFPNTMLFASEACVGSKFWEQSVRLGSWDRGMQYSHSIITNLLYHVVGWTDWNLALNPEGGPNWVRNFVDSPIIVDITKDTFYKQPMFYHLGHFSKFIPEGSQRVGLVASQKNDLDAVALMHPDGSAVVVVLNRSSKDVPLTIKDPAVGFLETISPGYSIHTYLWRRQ

Potency, inactive:
COc1cccc(C(=O)N(Cc2ccco2)Cc2cc3cccc(C)c3[nH]c2=O)c1 > 76.9 µM, CCCCc1ccc(C(=O)NC(C(=O)O)C(C)C)cc1 (configuration not stated) > 76.9 µM, CCOC(=O)c1sc(N)c(C#N)c1COC(=O)CNC(=O)c1ccccc1 > 76.9 µM, COC(=O)CSc1nnc(-c2ccco2)o1 > 76.9 µM, CC(=O)N(Cc1cc2cc(C)c(C)cc2n2nnnc12)CC1COCCO1 (configuration not stated) > 76.9 µM, CCCCCOC(=O)c1cc(=O)[nH]c2ccccc12 > 76.9 µM, CC(=O)COc1ccc2c3c(c(=O)oc2c1)CCCC3 > 76.9 µM, Cc1ccc(CCNC(=O)C2CCC(=O)N2C2CCCC2)cc1 (configuration not stated) > 76.9 µM, COc1cccc(CNC(=O)C2CCCN(S(C)(=O)=O)C2)c1 (configuration not stated) > 76.9 µM, COc1cc(OC)cc(-c2nc3nc(C)c(CCC(=O)O)c(C)n3n2)c1 > 76.9 µM, O=C(NCc1cccs1)C1CCC(CNS(=O)(=O)c2ccc(Br)s2)CC1 (configuration not stated) > 76.9 µM, CC(=O)C1=C(Nc2ccc(C)cc2)CC(C)(O)C(C(C)=O)C1c1ccco1 (configuration not stated) > 76.9 µM, COCCn1c(C)cc(C(=O)COC(=O)c2cc3c(s2)CCC3)c1C > 76.9 µM, N#CCSc1nnc(CNc2cccc(Cl)c2)o1 > 76.9 µM, COc1cc(C(=O)NCCc2ccc3c(c2)OCCO3)ccc1OCC(=O)N1CCOCC1 > 76.9 µM, COc1ccc(CN(Cc2cc3ccc(C)cc3[nH]c2=O)Cc2nnnn2C2CCCC2)cc1 > 76.9 µM, Cc1cc(C)c2[nH]c(=O)c(C(c3nnnn3Cc3ccc4c(c3)OCO4)N3CCCCC3)cc2c1 (configuration not stated) > 76.9 µM, CCOc1ccccc1C1C2C(=O)N(c3ccccc3)C(=O)C2ON1c1ccccc1 (configuration not stated) > 76.9 µM, COC(=O)c1ccccc1NC(=O)N1CCCC1 > 76.9 µM, CCOC(=O)C1CCCN(CC(O)COc2ccc(OC)cc2C(C)(C)C)C1 (configuration not stated) > 76.9 µM, CCC(C)(C)n1nnnc1C(c1ccc2ncccc2c1)N1CCN(Cc2ccc3c(c2)OCO3)CC1 (configuration not stated) > 76.9 µM, COc1ccc2c(c1)CCc1c(C(=O)N3CCCc4ccccc43)noc1-2 > 76.9 µM, COCCNC(=O)CCn1c(=O)oc2ccccc21 > 76.9 µM, CCN(CC)C(=O)CSc1ncnc2c1cnn2Cc1ccccc1 > 76.9 µM, O=C(CN1CCN(Cc2ccccc2)CC1)NC(=O)NC1CCCCC1 > 76.9 µM, CC(C)(CO)NS(=O)(=O)c1ccc2c(c1)oc(=O)c1cc(S(=O)(=O)NC(C)(C)CO)ccc12, CCOC(=O)C1CCN(c2nc(C)nc3c2oc2ccccc23)CC1 > 76.9 µM, O=C(Nc1cc(C(F)(F)F)ccc1Cl)C1CCN(c2nnc(-n3cccc3)s2)CC1 > 76.9 µM, COc1ccc(NC(=O)c2cc3cc(OC)ccc3oc2=N)cc1 > 76.9 µM, CCOC(=O)N1CCC(Nc2c(NCCCOC)c(=O)c2=O)CC1 > 76.9 µM, O=C(O)CCCC(=O)Nc1ccc(C(=O)NCc2cccnc2)cc1 > 76.9 µM, COc1ccc(-n2nc3cc(C)c(NC(=O)c4cccnc4)cc3n2)cc1 > 76.9 µM, O=C(c1cc2c(s1)CCCC2)n1cccn1 > 76.9 µM, Cn1c(=O)c2c(ncn2CC(=O)N2CCN(c3cccc(Cl)c3)CC2)n(C)c1=O > 76.9 µM, Cc1ccc(S(=O)(=O)NC2(C(F)(F)F)NC(=O)N(C)C2=O)cc1 (configuration not stated) > 76.9 µM, Cc1ccc(S(=O)(=O)N2CCN(C(=O)CN3CCc4ccccc4C3)CC2)cc1 > 76.9 µM, C/C(CC1(O)C(=O)N(C)c2ccccc21)=N\O (configuration not stated) > 76.9 µM, O=C(Nc1nnc(C2CCCC2)s1)C1CCN(S(=O)(=O)c2ccc(Cl)cc2)CC1 > 76.9 µM, O=C(NC1CCCC1)C1CCCN1C(=O)Nc1ccc(Cl)cc1 (configuration not stated) > 76.9 µM, O=C1c2cccnc2-c2ncccc21 > 76.9 µM, O=S(=O)(c1cccc(-c2nnc(SCc3nc4ccccc4s3)o2)c1)N1CCOCC1 > 76.9 µM, Cc1cccc(-n2c(SCc3cc(=O)n4ccsc4n3)nc3ccccc32)c1 > 76.9 µM, CCCCOc1ccc(N2C(=O)CC(N(O)c3ccccc3)C2=O)cc1 (configuration not stated) > 76.9 µM, COC(=O)c1ccc(Cn2nnc3ccccc3c2=O)o1 > 76.9 µM, Cc1cc(C)cc(OCC(=O)NC2=NCCS2)c1 > 76.9 µM, N#CNC1=NCN(CCc2ccccc2)CN1 > 76.9 µM, O=C1NC(=O)C(CC(=O)N(Cc2ccco2)C2(C(=O)NC3CCCC3)CCCCC2)N1 (configuration not stated) > 76.9 µM, CCCCC(=O)N(CCOC)c1nnc(-c2ccc(OC)cc2)s1 > 76.9 µM, CC(=O)c1cccc(S(=O)(=O)N(CCCO)Cc2cc3ccc(C)cc3[nH]c2=O)c1 > 76.9 µM, CCCC(CCC(=O)OC)(C(=O)OCC)c1csc(N)n1 (configuration not stated) > 76.9 µM, CC(=O)Nc1ccc(S(=O)(=O)N2CCCN(S(=O)(=O)c3ccc(C)cc3)CC2)cc1 > 76.9 µM, O=C(O)CC1NC(=O)N(c2ccccc2)C1=O (configuration not stated) > 76.9 µM, Cc1ccc(CNc2ccc3c(c2)OCO3)c(C)c1 > 76.9 µM, COc1ccc(NC(=O)CSc2nc(C)cc(C(F)(F)F)n2)cc1 > 76.9 µM, COc1ccc(CCN(Cc2nc3ccccc3c(=O)[nH]2)C(=O)c2ccco2)cc1 > 76.9 µM, CCOC(=O)c1cnc(-n2nc(C)cc2C)nc1NCc1ccc2c(c1)OCO2 > 76.9 µM, CCCCCn1c(CN2CCN(c3cccc(Cl)c3)CC2)nc2c1c(=O)n(C)c(=O)n2C > 76.9 µM
